In PubChem BioAssay AID686970 (National Center for Advancing Translational Sciences (NCATS), 2013):
Among all 360,000 compounds or so, about 6,000 (1.7%) were called active. Inconclusive results, whose numbers are uncertain, are shown with a selection of clear calls. The call rests on the fitted dose curve; in most records, active means well fitted cell-killing curve with a large enough effect; inconclusive means small, poorly fitted or top-dose-only effect, or effect the other way; inactive means flat fitted curve, though single readings scatter. Potencies of inconclusive entries are left out as doubtful fits.

experiment: qHTS for induction of synthetic lethality in tumor cells producing 2HG: qHTS for the HT-1080-NT fibrosarcoma cell line; conditions: HT-1080-NT fibrosarcoma viability, CellTiter-Glo ATP luminescence, 48 h; activity, negative = less viability: at 46.1 µM (top of the series) unless noted;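 further: NT is the 2HG producing partner of a matched IDH1 knockdown line; nearly all actives have a fitted effect of over 55% in size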;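 on activity, negative = less viability: 0% = DMSO-treated cells and -100% = media-only wells without cells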
Procedure, shortened: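 750 cells/well, RPMI + 5% FBS; 2 h settle, compound pin-transfer, 48 h at 37 degrees C. CellTiter-Glo 10 min RT, luminescence. Normalized to DMSO and media-only wells.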
Potency means the concentration at half of the fitted maximal effect; tags describe the fitted curve by direction and shape.

Compound | Potency | activity, negative = less viability
CCCC(=O)NC(=S)Nc1nc(-c2ccc(OC)cc2)cs1 | inconclusive [cytotoxic, single point] | 
CC/C(=N\Nc1ccccc1[N+](=O)[O-])c1ccc(O)cc1 | inconclusive [cytotoxic, single point] | 
O=C(O)c1ccc(-n2ncc3c2/C(=C\c2cccc([N+](=O)[O-])c2)CC3)cc1 |  | inactive: 2.33%
S=C1NC[C@H](Cc2ccccc2)N1CCCCC1CCCCC1 | inconclusive [cytotoxic, single point] | 
Cc1ccc(CNc2ncccc2-c2nc3cc(Cl)ccc3o2)cc1 | inconclusive [cytotoxic, single point] | 
O=C(NCCC(=O)N1CCc2ccccc21)c1ccco1 |  | inactive: 17.8%
C#CC[N+]1(CC#Cc2ccc(C)cc2)CCCCC1 | inconclusive [cytotoxic, partial curve] | 
COc1ccc2c(c1OC)C(=O)OC2Nc1nc(-c2cc3cc(Br)ccc3oc2=O)cs1 (stereo unspecified) |  | inactive: -26.1%
CC1(C(=O)NCc2ccc(F)c(F)c2)Cc2c(-c3cccc(C(F)(F)F)c3)ccnc2O1 (stereo unspecified) | inconclusive [cytotoxic, single point] | 
COc1ccc(NS(=O)(=O)c2cc(NC(=O)c3sccc3C)ccc2N2CCOCC2)cc1 |  | inconclusive: -0.372% [cytotoxic]
Cc1ccc(-c2nnc(N3CCOCC3)c3ccccc23)cc1S(N)(=O)=O |  | inactive: -9.1%
O=C(CC1(C(F)(F)F)OCCO1)Nc1ccc2c(c1)OCO2 |  | inactive: 4.52%
COC(=O)c1ccccc1-c1ccc(C(c2c(C)[nH][nH]c2=O)c2c(C)[nH][nH]c2=O)o1 | inconclusive [cytotoxic, partial curve] | 
CCCCn1c(C)csc1=Nc1cccnc1 |  | inactive: 5.92%
CC(C)CNc1ncnc2c1ncn2[C@H]1CN(C2CCCC2)C[C@@H](CO)O1 |  | inactive: 13%
O=C(Nc1nc2ccc(Cl)cc2s1)c1ccco1 | inconclusive [cytotoxic, single point] | 
COc1ccc(C(C(=O)NC2CCCC2)N(C(=O)c2snc(C(N)=O)c2N)c2cc(C)ccc2OC)cc1OC (stereo unspecified) |  | inactive: -12.2%
CCc1nc2ccc(C(=O)NCCCn3ccnc3)cn2c1N(C)CCCc1ccccc1 | inconclusive [cytotoxic, single point] | 
Cc1cc(C)c(C#N)c(SCc2cn3c(C)cccc3n2)n1 |  | inactive: 6.93%
O=C(Nc1ccc(Nc2ccccc2)cc1)N1CCOCC1 | inconclusive [cytotoxic, single point] | 
Cc1cccc(CS(=O)(=O)c2cn(CC(=O)N3CCOCC3)c3ccccc23)c1 |  | inactive: -2.56%
